One assay deals with human CD33 (human, UniProt P20138). The assay is described as follows: cell-based or functional assay.
Another assay deals with T1, Human CD33-C2-HSA (human).
T1 construct: C2 domain of human CD33 fused to HSA; also called C33W4; huCD33-C2-HSA
The assay is described as follows: IBIS SPRi off-rate screen.

Another assay has as its target T2, Human CD33-V-HSA (human).
T2 construct: V domain of human CD33 fused to HSA; also called C33W3; huCD33-V-HSA
The assay is described as follows: IBIS SPRi off-rate screen; antigen as analyte. The procedure:
(§1) To begin assessing the biophysical binding properties of the purified mAbs an off-rate screen was performed. 76 OMNIRat anti-CD33 mAbs were tested for binding to recombinant human CD33 ECD-HSA (C33W2) and cyno CD33 ECD-HSA (C33W1) proteins (Janssen production) and the off-rate was measured by IBIS MX96 SPRi array platform (Carterra; Newton, Pa.). […] The sensor chip was transferred to the Continuous Flow Microspotter (CFM) unit to capture each anti-CD33 mAb at 10 μg/ml for 10 minutes. Binding was measured on IBIS SPRi by single cycle kinetics without regeneration. Each antigen concentration series (3 μM in 3 fold dilution series) was sequentially injected from low (0.46 nM) to high concentrations (3 μM) to bind to captured mAbs with an association time of 5 minutes and dissociation time of 15 minutes using PBST (PBS with 0.005% Tween) as running buffer. The raw binding data (.trix file format) were referenced and aligned using SprintX software (Wasatch, Ver 1.9.3.2), then exported (.ibmx file format) to Scrubber software (Ver. 2.0) for 1:1 binding kinetic analyses (Wasatch, version 2.0.0.33) to extract the koff results.
(§2) CD33 is comprised of 2 IgG domains, the membrane distal V domain and the membrane proximal C2 domain. […]

A further assay concerns the target T3, Human CD33 ECD-HSA (human, UniProt P20138 18-259).
T3 construct: Human CD33 ECD (Uniprot P20138) fused at the C-terminus to monomeric HSA (C58S) and a six-histidine tag; also called C33W2; huCD33 ECD-HSA; not shown: HSA (C58S) carrier, its junction or linker to the ECD, and the layout of the His tag
As to the kind of experiment: IBIS SPRi off-rate screen; antigen as analyte. The procedure: as §1, §2

The koff is the first-order rate constant of dissociation.

Sequence of human CD33 (P20138 18-364 limits assumed): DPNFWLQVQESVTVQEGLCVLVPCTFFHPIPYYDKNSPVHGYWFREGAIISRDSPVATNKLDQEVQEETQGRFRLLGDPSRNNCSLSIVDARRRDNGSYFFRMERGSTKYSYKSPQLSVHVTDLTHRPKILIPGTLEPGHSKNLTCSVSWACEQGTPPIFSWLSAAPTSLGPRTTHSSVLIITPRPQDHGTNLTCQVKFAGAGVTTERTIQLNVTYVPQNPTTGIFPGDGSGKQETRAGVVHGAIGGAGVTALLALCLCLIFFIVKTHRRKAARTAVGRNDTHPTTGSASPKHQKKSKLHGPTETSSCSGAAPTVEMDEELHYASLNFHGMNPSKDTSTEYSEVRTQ
Sequence of Human CD33 ECD-HSA (P20138 18-259 limits assumed, form in doubt): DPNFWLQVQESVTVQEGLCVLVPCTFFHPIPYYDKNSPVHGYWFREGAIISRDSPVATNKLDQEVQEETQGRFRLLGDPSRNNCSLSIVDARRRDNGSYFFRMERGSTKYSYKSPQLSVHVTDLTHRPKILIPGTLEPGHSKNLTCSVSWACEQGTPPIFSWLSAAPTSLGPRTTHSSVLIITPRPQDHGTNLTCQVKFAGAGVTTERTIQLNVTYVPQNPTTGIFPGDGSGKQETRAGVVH

B1: C33B806 (antibody)
heavy: QLQLQESGPGLVKPSETLSLTCTVSGGSISSSSYYWGWIRQPPGKGLDWIGSINYSGSTYYNPSLKSRVTISVDTSKIQFSLKLRSVTAADTAVYYCARLDGYESPFDYWGQGTLVTVSSASTKGPSVFPLAPCSRSTSESTAALGCLVKDYFPEPVTVSWNSGALTSGVHTFPAVLQSSGLYSLSSVVTVPSSSLGTKTYTCNVDHKPSNTKVDKRV[in this place human IgG4 Fc with S228P F234A L235A (EU numbers)]
light: DIQMTQSPSSVSASVGDRVTITCRASQGISSWLAWYQQKPGKAPKLLIYAASSLQSGVPSRFSGSGSGTDFTLTISSLQPEDFATYYCQQANSFPFTFGPGTKVDIKRTVAAPSVFIFPPSDEQLKSGTASVVCLLNNFYPREAKVQWKVDNALQSGNSQESVTEQDSKDSTYSLSSTLTLSKADYEKHKVYACEVTHQGLSSPVTKSFNRGEC
As for B1, the “EC50 (nM), CD33 internalization assay (Protein A-MMAF cell viability, MOLM13)” value with human CD33 was 0.22 nM.

B2: C33B806 (antibody)
heavy: QLQLQESGPGLVKPSETLSLTCTVSGGSISSSSYYWGWIRQPPGKGLDWIGSINYSGSTYYNPSLKSRVTISVDTSKIQFSLKLRSVTAADTAVYYCARLDGYESPFDYWGQGTLVTVSSASTKGPSVFPLAPCSRSTSESTAALGCLVKDYFPEPVTVSWNSGALTSGVHTFPAVLQSSGLYSLSSVVTVPSSSLGTKTYTCNVDHKPSNTKVDKRV[in this place human IgG4 Fc with S228P F234A L235A (EU numbers)]
light: DIQMTQSPSSVSASVGDRVTITCRASQGISSWLAWYQQKPGKAPKLLIYAASSLQSGVPSRFSGSGSGTDFTLTISSLQPEDFATYYCQQANSFPFTFGPGTKVDIKRTVAAPSVFIFPPSDEQLKSGTASVVCLLNNFYPREAKVQWKVDNALQSGNSQESVTEQDSKDSTYSLSSTLTLSKADYEKHKVYACEVTHQGLSSPVTKSFNRGEC
notes: huIgG4 PAA; HC C33H69, LC C4LL152 (same V region as C33B101); also called C33F106
As to B2, the binding result with Human CD33-C2-HSA is recorded as “no binding”. Besides, the off-rate (koff) came out at 0.00318 s⁻¹ in the assay with Human CD33-V-HSA and 0.00136 s⁻¹ with Human CD33 ECD-HSA.

B3: C33B904 (antibody, human IgG4 S228P, kappa, F234A L235A)
heavy: EVQLVESGGGLVQPGRSLRLSCAASGFTFDDYAMHWVRQAPGKGLEWVSGIGWSGGSIVYADSVKGRFTISRDNAKNSLYLQMNSLRAEDTALYYCAKDSPYGDFFDYWGQGTLVTVSSASTKGPSVFPLAPCSRSTSESTAALGCLVKDYFPEPVTVSWNSGALTSGVHTFPAVLQSSGLYSLSSVVTVPSSSLGTKTYTCNVDHKPSNTKVDKRV[in this place human IgG4 Fc with S228P F234A L235A (EU numbers)]
light: DIVMTQSPDSLAVSLGERATINCKSSQTVFYSSNNKNYLAWYQQKPGQPPKLLISWASTRKSGVPDRFSGSGSGTDFTLTVSSLQAEDVAVYYCQHYYSTPYTFGQGTKLEIKRTVAAPSVFIFPPSDEQLKSGTASVVCLLNNFYPREAKVQWKVDNALQSGNSQESVTEQDSKDSTYSLSSTLTLSKADYEKHKVYACEVTHQGLSSPVTKSFNRGEC
As to B3, the “EC50 (nM), CD33 internalization assay (Protein A-MMAF cell viability, MOLM13)” value with human CD33 was 0.96 nM.

For the origin of these results see US20190382481A1 (Janssen / Centocor, published 2019).
